In PubChem BioAssay AID1508623 (National Center for Advancing Translational Sciences (NCATS), 2021):
Out of some 48,000 compounds screened, about 450 (0.94%) were called active. Not shown: some 19% with an inconclusive outcome. Calls follow the shape of the dose curve; as a rule, active = well fitted inhibition curve with a large enough effect; inconclusive = small, poorly fitted or top-dose-only effect; inactive = no such curve, though single readings can be large or run the other way. The list shows a part of the results.

Test: Primary qHTS for Identification of Small Molecule Inhibitors of Huntingtin Promoter Activity; also: nearly all actives have a fitted effect of over 50% in size
Details: HEK293 HTT promoter firefly luciferase reporter (activity 0% = vehicle and -100% = no light), 24 h; series mostly up to 57.5 µM; activity change, negative = inhibition: at the top concentration
Procedure, shortened: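 Quantitative HTS used concentration series of up to 57.5 uM final on HEK293 luciferase reporter cells, 24 h at 37 degrees C. Readout was Dual-Glo firefly luminescence.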

Activity change, negative = inhibition, inactive:
COc1ccc(C(=O)COC(=O)C(Cc2c[nH]c3ccccc23)NC(=O)c2ccc(C(C)(C)C)cc2)cc1 (configuration not stated) -25.2%
CCOC(=O)c1cc(OC(=O)c2ccccc2C)n(-c2ccccc2)n1 -4.63%
CC1(C)NC(=O)N(c2ccc([N+](=O)[O-])c(C(F)(F)F)c2)C1=O
COCCCNC(=O)C1CCN(c2nc3ccc(C)cc3[nH]2)CC1 12.8%
COc1cccc(N2CCN(C(=O)CCS(=O)(=O)c3ccc4c(c3)oc(=O)n4C)CC2)c1 -12.5%
CC(C)(c1ccc(O)cc1)c1ccc(O)cc1 -21.3% [at 116 µM]
Cc1cc2oc(=O)cc(C)c2c2occ(-c3ccc(Cl)cc3)c12 -7.67%
Cc1cccc(N2CCN(C(=O)Cn3ncc4c5ccccc5n(C)c4c3=O)CC2)c1C 18.4%
COc1ccc(C(=O)Nc2ccc(-n3nncc3-c3ccccc3)cc2)cc1OC -23.2%
Cc1ccc2[nH]c3c(=O)n(CC(=O)N4CCCCC4)ncc3c2c1 12.5%
COc1ccc(OC)c(CNC(=O)C2CCN(c3nc4ccccc4nc3C(F)(F)F)CC2)c1 -4.52%
Cc1ccc(-n2nc(CO)c(C(=O)NCc3cccnc3)n2)cc1 -27.1%
CCc1ccc(S(=O)(=O)c2cn(Cc3ccccc3)c3cc(F)c(F)cc3c2=O)cc1 -17.6%
Cc1ccc(OCC(=O)Nc2ccc3nc(SCC(=O)N4CCOCC4)sc3c2)cc1 -7.87%
COc1ccccc1NC(=O)CSc1ncc2c(n1)-c1cc(Cl)ccc1N(Cc1ccccc1)S2(=O)=O -25.9%
CCCCNC(=O)CCCn1c(=O)c2ccccc2n(Cc2cccc(Cl)c2)c1=O -25.3%
O=C(NC1CCCC1)c1cc(Nc2cccc(C(F)(F)F)c2)nc2ccccc12 -13.4%
CCC(=O)N1CCc2cc(Br)cc(S(=O)(=O)CCC(=O)N3CCN(c4ccccc4F)CC3)c21 -5.52%
Cc1ccc(C(C)OC(=O)C2(C)CCC(C(=O)O)C2(C)C)cc1 (configuration not stated) 1.2%
NC(=O)c1nc(Nc2ccccc2)sc1NC(=O)c1ccccc1Br 1.18%
COCCCNC(=O)CSc1nc2c(sc3ccccc32)c(=O)n1CCc1ccccc1 0.781%
COc1cc(NC(=O)CSc2nc3ccccc3nc2Cc2ccc(Cl)cc2)cc(OC)c1 -7.61%
C[C@@H](Cc1cc2c(c(C(N)=O)c1)N(CCCO)CC2)NCCOc1ccccc1OCC(F)(F)F -11.4%
Cc1nc2c(c(C)c1CCC(=O)NCc1ccccc1)c(=O)n(C)c(=O)n2C 2.36%
CCOC(=O)c1cccc(NC(=O)c2cc3c(-c4cccc(OC)c4)nn(C)c3s2)c1 -27%
CC(C)(C)c1ccc(OCC(=O)Nc2ccc(S(=O)(=O)Nc3ncccn3)cc2)cc1 -4.79%
Cc1ccc(S(=O)(=O)c2nc(S(C)(=O)=O)sc2N(C)Cc2ccccc2)cc1 -20%
Cc1cccc(NC(=O)C2CCC(CNS(=O)(=O)c3csc(C(N)=O)c3)CC2)c1C (configuration not stated) -24.4%
N#Cc1c(N)n(-c2cccc(Cl)c2)c2nc3ccccc3nc12 -4.15%
COc1cccc(Nc2cc(C)nc3nc(-c4ccc(Cl)cc4)nn23)c1 -4.89%
Cc1nn2c(=O)cc(COc3ccc(/C=C(\C#N)C(=O)Nc4ccc(F)cc4)cc3)nc2s1 -5.24%
Cc1nn(C)c2c1c(-c1ccccc1)cc(=O)n2CC(=O)Nc1ccccc1C(F)(F)F -15%
O=C(COc1ccccc1Cl)Nc1nnc(S(=O)(=O)N2CCCCCC2)s1 -18.1%
O=C(NCCCc1nc2ccccc2n1Cc1c(F)cccc1Cl)C1CCCCC1 -0.721%
Cc1cn2c(=O)cc(COc3ccc(Cl)cc3)nc2s1 20.2%
COc1cc(NC(=O)Nc2cccc(-c3noc(C)n3)c2)cc(OC)c1OC -27.8%
CCOc1ccc(-n2c(=O)c3c(C)c(C)sc3n(CC(=O)N(CC)Cc3ccccc3)c2=O)cc1 -1.86%
Cc1ccc(Cl)cc1NC(=O)Cc1ccc(-n2c(C)nc3cccnc32)cc1 -24.5%
CCOc1ccc(CNc2nc3nc(C)c(Cc4ccccc4)c(=O)n3[nH]2)cc1 -2.24%
COc1ccc2c(c1)CC(C(=O)Nc1cc(Cl)ccc1C)CO2 (configuration not stated) -24.2%
CCc1ccc(CNC(=O)C2Cc3cc(S(=O)(=O)N4CCCCCC4)ccc3N2C(C)=O)cc1 (configuration not stated) -11.3%
COc1cc(C2c3c(oc4ccccc4c3=O)C(=O)N2c2ccccn2)cc(OC)c1OC (configuration not stated) -16.4%
COc1ccc(N(Cc2cccs2)C(=O)c2ccc(OCC(C)C)cc2)cc1 -29.3%
CCCc1nn2c(=O)cc(COC(=O)c3ccccc3NC(=O)c3cccs3)nc2s1 17.9%
COC(=O)[C@@H]1[C@H]2C[C@H]3c4[nH]c5ccccc5c4CCN3C[C@@H]2CC[C@@H]1O 5.12%
Cc1ccc(C)c(C(=O)c2c(N)c(-c3nc(-c4ccc5c(c4)OCO5)cs3)c3ccccn23)c1 -36.4%
Cc1cccc(NC(=O)C2CCC(CNS(=O)(=O)c3ccc(Br)s3)CC2)c1 (configuration not stated) -29.6%
Cc1ccc(OCC(=O)Nc2ccc(Cl)c(-c3nc4ncccc4o3)c2)c(C)c1 6.91%
COc1cccc(C2CC(=O)N(c3ccc(F)cc3)C3=C2C(=O)OC3)c1OC (configuration not stated) 16.3%
Cc1ccc(C)c(NC(=O)CN2C(=O)COc3ccc(Cl)cc32)c1 -27.6%
C[N+](C)([O-])CCNc1ccc(NCC[N+](C)(C)[O-])c2c1C(=O)c1c(O)ccc(O)c1C2=O -6.33%
Cn1c(=O)nc2n(-c3ccc(Cl)c(Cl)c3)c3cc(Cl)ccc3cc-2c1=O -4.29%
O=C(Nc1c(C(=O)Nc2ccc(F)cc2)oc2ccccc12)c1ccccc1F -2.21%
CCCCNC(=O)NS(=O)(=O)c1ccc(C)cc1 6.28%
COc1ccccc1CNC(=O)C1CCCN(c2nnc(-n3c(C)ccc3C)s2)C1 (configuration not stated) -15.9%
Cc1cc(O)cc2c1O[C@](C)(CCC[C@H](C)CCC[C@H](C)CCCC(C)C)CC2 2.91%
COc1ccc(C(=O)N(Cc2ccc(C(C)C)cc2)C2CCS(=O)(=O)C2)cc1 (configuration not stated) -28.9%
Cc1nc2nc(SCC(=O)NCCc3ccccc3)nn2c(C)c1Cc1c(F)cccc1Cl -4.4%
Cc1ccccc1CNS(=O)(=O)c1csc(C(N)=O)c1 -18.6%
CCn1c(SCCOc2ccccc2F)nc2ccccc21 -3.21%
CCOc1ccccc1C(=O)Nc1ccc2c(c1)N(C)C(=O)c1ccccc1S2 -26.3%
Cc1c(C2=CCN(S(=O)(=O)c3ccc(CC(C)C)cc3)CC2)c2ccccc2n1CC(=O)N1CCCC1 -24.3%
